The text below walks through data of US10335372B2, “Compositions with modified nucleases targeted to viral nucleic acids and methods of use for prevention and treatment of viral diseases” (priority 2004, dated 2019).

The test system of this test is dsDNA. The experiment in a line: Hydrolysis of dsDNA in human serum by native, multi-charged and actin-resistant DNase I variants. To be noted: for Time T50 (min) 50% DNA hydrolysis: single values of triplicate. The procedure:
Target dsDNA in phosphate buffer, pH 7.5, at a DNA concentration 5 ng/ml, approximates in vivo peak concentrations of viral DNA within an infected cell. This concentration is orders of magnitude lower than typical concentration of endogenous host DNA in serum (about 25-250 ng/ml; Pan, et al., J. Biol. Chem. 273, No 29: 18374-18381, 1998). Standard assay of DNase activity is based on conversion of acid-insoluble DNA polymer, precipitable by cold 2.25 mol/l perchloric acid, into non-precipitable acid soluble fragments that are 20 bp or less long determined spectrophotometrically at λ=260 nm (Dewez, et al., Eur. J. Clin. Chem. Clin. Biochem. 31, 793-797, 1993). The results performed in triplicate represent time required for 50% solubilization of 5 kbp dsDNA (500 μg/ml) by each of the mc and mc/ar-DNases (+1 to +6) positively charged variants, compared with the 50%-solubilization time of the same 5 kbp dsDNA samples digested by wild-type human DNase I.

Where a chain is given by its changes, count along the chain named. Numbers in names are those of the source. Where “and” joins values, the source holds several entries; their conditions need not be identical. Equal entries are not always repeated.

B1: mc/arDNase (+6): hyperactive/actin-resistant human DNase I, E13R/T14K/H44R/N74K/T205K/A114R (protein, UniProt P24855 23-282, looked up, variant E13R T14K H44R N74K T205K A114R)
Deoxyribonuclease-1: LKIAAFNIQTFGRKKMSNATLVSYIVQILSRYDIALVQEVRDSRLTAVGKLLDNLNQDAPDTYHYVVSEPLGRKSYKERYLFVYRPDQVSAVDSYYYDDGCEPCGNDTFNREPRIVRFFSRFTEVREFAIVPLHAAPGDAVAEIDALYDVYLDVQEKWGLEDVMLMGDFNAGCSYVRPSQWSSIRLWTSPTFQWLIPDSADTTAKPTHCAYDRIVVAGMLLRGAVVPDSALPFNFQAAYGLSDQLAQAISDHYPVEVMLK
With B1, the “Average T50 (min) 50% DNA hydrolysis” value is listed as 1 min.

B2: mcDNase (+5): recombinant human DNase I with substitutions E13R/T14K/H44R/N74K/T205K (protein, UniProt P24855 23-282, looked up, variant E13R T14K H44R N74K T205K)
Deoxyribonuclease-1: B1 Deoxyribonuclease-1 with R114A
Consider B2, for which the “Average T50 (min) 50% DNA hydrolysis” value was 6 min; the “Time T50 (min) 50% DNA hydrolysis” value is 5 min and 6 min and 7 min.

B3: mcDNase (+3): recombinant human DNase I with substitutions E13R/N74K/T205K (protein, UniProt P24855 23-282, looked up, variant E13R N74K T205K)
Deoxyribonuclease-1: B1 Deoxyribonuclease-1 with K14T, R44H, R114A
B3: the “Average T50 (min) 50% DNA hydrolysis” value was 11 min; the “Time T50 (min) 50% DNA hydrolysis” value was 10 min and 11 min and 12 min.
